In the supplement of paper PMC4967469:
A lower IC50 marks a more sensitive line; where the fit passes the top or lowest dose, that dose stands as a limit. AUC is the area under the same curve over the 256-fold range up to the top dose, as a fraction; the more sensitive the line, the further below 1. For some of these results: Where the top dose is marked as inferred, it was derived from the fitted curves, not read from the paper.

Legend:
Test in all cases: Viability of human cancer cell lines after 72 h of drug (GDSC screen)
VX-11e = compound: Cc1cnc(Nc2ccc(F)cc2Cl)nc1-c1c[nH]c(C(=O)N[C@H](CO)c2cccc(Cl)c2)c1 [VX-11e]; settings: top dose 5.12 µM; top dose inferred
Protocol: (§1)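 Human cancer cell lines in 384-well plates, medium with 10% serum, drug for 72 h over a 256-fold dose range (nine 2-fold or five 4-fold steps up to the top dose). Adherent lines were fixed and stained with the nucleic acid dye Syto60, suspension lines read with resazurin; signal relative to control wells, capped at 0 and 100%. One two-parameter sigmoid per drug and line, fitted in a mixed model over all curves with the slope shared within a line.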

BIX02189 = compound: CN(C)Cc1cccc(N=C(c2ccccc2)c2c(O)[nH]c3cc(C(=O)N(C)C)ccc23)c1 [BIX02189]; settings: top dose 20 µM; top dose inferred
Protocol: as §1

UNC1215 = compound: O=C(c1ccc(C(=O)N2CCC(N3CCCC3)CC2)c(Nc2ccccc2)c1)N1CCC(N2CCCC2)CC1 [UNC1215]; settings: top dose 1 µM; top dose inferred
Protocol: as §1

Doxorubicin = compound: COc1cccc2c1C(=O)c1c(O)c3c(c(O)c1C2=O)C[C@@](O)(C(=O)CO)C[C@@H]3O[C@H]1C[C@H](N)[C@H](O)[C@H](C)O1 [Doxorubicin]; settings: top dose 1.024 µM
Protocol: as §1

OSI-027 = compound: COc1cccc2cc(-c3nc([C@H]4CC[C@H](C(=O)O)CC4)n4ncnc(N)c34)[nH]c12 [OSI-027]; settings: top dose 20 µM
Protocol: as §1

Dimethyloxalylglycine = compound: COC(=O)CNC(=O)C(=O)OC [Dimethyloxalylglycine]; settings: top dose 4000 µM; top dose inferred
Protocol: as §1

TG101348 = compound: Cc1cnc(Nc2ccc(OCCN3CCCC3)cc2)nc1Nc1cccc(S(=O)(=O)NC(C)(C)C)c1 [TG101348]; settings: top dose 10.24 µM
Protocol: as §1

CCT018159 = compound: CCc1cc(-c2n[nH]c(C)c2-c2ccc3c(c2)OCCO3)c(O)cc1O [CCT018159]; settings: top dose 10 µM; top dose inferred
Protocol: as §1

17-AAG = compound: C=CCNC1=C2C[C@@H](C)C[C@H](OC)[C@H](O)[C@@H](C)/C=C(\C)[C@H](OC(N)=O)[C@@H](OC)/C=C\C=C(/C)C(=O)NC(=CC1=O)C2=O [17-AAG]; settings: top dose 1 µM
Protocol: as §1

Vismodegib = compound: CS(=O)(=O)c1ccc(C(=O)Nc2ccc(Cl)c(-c3ccccn3)c2)c(Cl)c1 [Vismodegib]; settings: top dose 10 µM; top dose inferred
Protocol: as §1

Cell Line | AUC (VX-11e) | IC50 (VX-11e) [µM] | AUC (BIX02189) | IC50 (BIX02189) [µM] | AUC (UNC1215) | IC50 (UNC1215) [µM] | AUC (Doxorubicin) | IC50 (Doxorubicin) [µM] | AUC (OSI-027) | IC50 (OSI-027) [µM] | AUC (Dimethyloxalylglycine) | IC50 (Dimethyloxalylglycine) [µM] | AUC (TG101348) | IC50 (TG101348) [µM] | AUC (CCT018159) | IC50 (CCT018159) [µM] | AUC (17-AAG) | IC50 (17-AAG) [µM] | AUC (Vismodegib) | IC50 (Vismodegib) [µM]
NUGC-3 (stomach, adherent) | 0.965 | > 5.12 | 0.977 | > 20 | 0.982 | > 1 | 0.452 | 0.0466 | 0.846 | 17.4 | 0.759 | 1550 | 0.97 | > 10.2 | 0.838 | 7.98 | 0.571 | 0.1 |  | 
SW1990 (pancreas, adherent) | 0.974 | > 5.12 | 0.985 | > 20 | 0.983 | > 1 | 0.687 | 0.236 | 0.854 | > 20 | 0.58 | 432 | 0.984 | > 10.2 | 0.919 | > 10 |  |  | 0.985 | > 10
NCI-H2030 (lung adenocarcinoma, adherent) | 0.939 | > 5.12 | 0.918 | > 20 | 0.981 | > 1 | 0.375 | 0.0276 | 0.539 | 1.62 | 0.382 | 113 | 0.812 | 6.43 | 0.765 | 4.14 | 0.477 | 0.0536 |  | 
UM-UC-3 (bladder, adherent) | 0.845 | 3.37 | 0.927 | > 20 | 0.987 | > 1 | 0.563 | 0.0941 | 0.418 | 0.756 | 0.478 | 219 | 0.905 | > 10.2 | 0.839 | 6.2 |  |  | 0.988 | > 10
PANC-10-05 (pancreas, adherent) | 0.871 | > 5.12 | 0.976 | > 20 | 0.977 | > 1 | 0.542 | 0.0859 | 0.382 | 0.54 | 0.507 |  | 0.893 | > 10.2 | 0.944 | > 10 | 0.767 | 0.479 |  | 
SW780 (bladder, adherent) | 0.952 | > 5.12 | 0.986 | > 20 | 0.945 | > 1 | 0.97 | > 1.02 | 0.959 | > 20 | 0.411 | 140 | 0.941 | > 10.2 | 0.869 | > 10 |  |  | 0.986 | > 10
Mewo (melanoma, adherent) | 0.984 | > 5.12 | 0.984 | > 20 | 0.983 | > 1 | 0.939 | > 1.02 | 0.849 | 19.6 | 0.486 | 228 | 0.972 | > 10.2 | 0.883 | > 10 |  |  | 0.954 | > 10
AN3-CA (endometrium, adherent) | 0.97 | > 5.12 | 0.975 | > 20 | 0.983 | > 1 | 0.479 | 0.0557 | 0.399 | 0.642 | 0.469 | 205 | 0.955 | > 10.2 | 0.878 | > 10 |  |  | 0.926 | > 10
NCI-H1581 (large cell lung carcinoma, semi-adherent) | 0.972 | > 5.12 | 0.968 | > 20 | 0.978 | > 1 | 0.893 | > 1.02 | 0.298 | 0.357 | 0.735 | 1100 | 0.85 | 6.82 | 0.989 | > 10 |  |  | 0.99 | > 10
SK-MEL-24 (melanoma, adherent) | 0.801 | 3.13 | 0.913 | > 20 | 0.978 | > 1 | 0.825 | 0.795 | 0.983 | > 20 | 0.943 | > 4000 | 0.983 | > 10.2 | 0.964 | > 10 |  |  | 0.977 | > 10
NCI-H2029 (small cell lung carcinoma, adherent) | 0.99 | > 5.12 | 0.986 | > 20 | 0.992 | > 1 | 0.883 | 0.909 | 0.903 | > 20 | 0.685 | 774 | 0.964 | > 10.2 | 0.992 | > 10 |  |  | 0.992 | > 10
UMC-11 (lung carcinoid, adherent) | 0.977 | > 5.12 | 0.969 | > 20 | 0.99 | > 1 | 0.794 | 0.416 | 0.347 | 0.495 | 0.439 | 174 | 0.825 | 5.27 | 0.958 | > 10 |  |  | 0.991 | > 10
KYSE-70 (oesophagus, adherent) | 0.982 | > 5.12 | 0.968 | > 20 | 0.984 | > 1 | 0.678 | 0.212 | 0.868 | > 20 | 0.624 | 568 | 0.92 | > 10.2 | 0.946 | > 10 |  |  | 0.987 | > 10
PANC-08-13 (pancreas, adherent) | 0.879 | > 5.12 | 0.915 | > 20 | 0.981 | > 1 | 0.839 |  | 0.367 | 0.481 | 0.71 | 1170 | 0.873 | > 10.2 | 0.955 | > 10 |  |  | 0.939 | > 10
